Measurements: the supplement of paper PMC8728848
This is one part of the list.

Legend:
Assay in all cases: glycan array binding signal (z-score within array); higher = stronger binding
Settings in all cases: glycan notation: IUPAC condensed, linker removed
[1] = target: GlcNAc(a1-4)Gal(b1-3)[Fuc(a1-2)]Gal
Procedure, shortened: (§1)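 The Consortium for Functional Glycomics database supplied 3228 glycan arrays, of which those lacking an available protein sequence were dropped. The binding signal, a within-array Z-score, was averaged across arrays of the same protein sequence and across linkers. Negative scores can be read as non-binding.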

[2] = target: GlcNAc(b1-2)Fuc
Procedure, shortened: as §1

[3] = target: GlcNAc(b1-2)Man
Procedure, shortened: as §1

[4] = target: GlcNAc(b1-2)Man(a1-3)[GlcNAc(b1-2)Man(a1-6)]Man
Procedure, shortened: as §1

[5] = target: GlcNAc(b1-2)Man(a1-3)[GlcNAc(b1-2)Man(a1-6)]Man(b1-4)GlcNAc(b1-4)GlcNAc
Procedure, shortened: as §1

[6] = target: GlcNAc(b1-2)Man(a1-3)[GlcNAc(b1-2)Man(a1-6)]Man(b1-4)GlcNAc(b1-4)[Fuc(a1-6)]GlcNAc
Procedure, shortened: as §1

[7] = target: GlcNAc(b1-2)Man(a1-3)[GlcNAc(b1-2)Man(a1-6)][GlcNAc(b1-4)]Man(b1-4)GlcNAc(b1-4)GlcNAc
Procedure, shortened: as §1

[8] = target: GlcNAc(b1-2)Man(a1-3)[Man(a1-3)[Man(a1-6)]Man(a1-6)][GlcNAc(b1-4)]Man(b1-4)GlcNAc(b1-4)GlcNAc
Procedure, shortened: as §1

[9] = target: GlcNAc(b1-2)[GlcNAc(b1-4)]Man(a1-3)[GlcNAc(b1-2)Man(a1-6)][GlcNAc(b1-4)]Man(b1-4)GlcNAc(b1-4)GlcNAc
Procedure, shortened: as §1

[10] = target: GlcNAc(b1-2)[GlcNAc(b1-4)]Man(a1-3)[GlcNAc(b1-2)[GlcNAc(b1-4)][GlcNAc(b1-6)]Man(a1-6)][GlcNAc(b1-4)]Man(b1-4)GlcNAc(b1-4)GlcNAc
Procedure, shortened: as §1

[11] = target: GlcNAc(b1-2)[GlcNAc(b1-4)]Man(a1-3)[GlcNAc(b1-2)[GlcNAc(b1-6)]Man(a1-6)]Man(b1-4)GlcNAc(b1-4)GlcNAc
Procedure, shortened: as §1

[12] = target: GlcNAc(b1-3)Fuc
Procedure, shortened: as §1

[13] = target: GlcNAc(b1-3)Gal(b1-4)Glc
Procedure, shortened: as §1

[14] = target: GlcNAc(b1-3)[GlcNAc(b1-6)]Gal
Procedure, shortened: as §1

[15] = target: GlcNAc(b1-3)[GlcNAc(b1-6)]Gal(b1-4)GlcNAc(b1-3)[GlcNAc(b1-6)]Gal(b1-4)GlcNAc(b1-3)Gal(b1-4)Glc
Procedure, shortened: as §1

[16] = target: GlcNAc(b1-4)Fuc
Procedure, shortened: as §1

[17] = target: GlcNAc(b1-4)GlcNAc
Procedure, shortened: as §1

[18] = target: GlcNAc(b1-4)GlcNAc(b1-4)GlcNAc
Procedure, shortened: as §1

[19] = target: GlcNAc(b1-4)GlcNAc(b1-4)GlcNAc(b1-4)GlcNAc
Procedure, shortened: as §1

[20] = target: GlcNAc(b1-4)GlcNAc(b1-4)GlcNAc(b1-4)GlcNAc(b1-4)GlcNAc
Procedure, shortened: as §1

[21] = target: GlcNAc(b1-4)GlcNAc(b1-4)GlcNAc(b1-4)GlcNAc(b1-4)GlcNAc(b1-4)GlcNAc
Procedure, shortened: as §1

[22] = target: GlcNAc(b1-4)GlcNAc(b1-4)GlcNAc(b1-4)GlcNAc(b1-4)GlcNAc(b1-4)GlcNAc(b1-4)GlcNAc
Procedure, shortened: as §1

[23] = target: GlcNAc(b1-4)GlcNAc(b1-4)GlcNAc(b1-4)GlcNAc(b1-4)GlcNAc(b1-4)GlcNAc(b1-4)GlcNAc(b1-4)GlcNAc
Procedure, shortened: as §1

[24] = target: HexA(a1-3)GalNAc4S(b1-4)GlcA(b1-3)GalNAc4S
Procedure, shortened: as §1

[25] = target: HexA(a1-3)GalNAc4S(b1-4)GlcA(b1-3)GalNAc4S(b1-4)GlcA(b1-3)GalNAc4S(b1-4)GlcA(b1-3)GalNAc4S(b1-4)GlcA(b1-3)GalNAc4S(b1-4)GlcA(b1-3)GalNAc4S(b1-4)GlcA(b1-3)GalNAc4S
Procedure, shortened: as §1

[26] = target: HexA(a1-3)GalNAc4S(b1-4)GlcA(b1-3)GalNAc4S(b1-4)GlcA(b1-3)GalNAc4S(b1-4)GlcA(b1-3)GalNAc4S(b1-4)GlcA(b1-3)GalNAc4S(b1-4)GlcA(b1-3)GalNAc4S(b1-4)GlcA(b1-3)GalNAc4S(b1-4)GlcA(b1-3)GalNAc4S
Procedure, shortened: as §1

[27] = target: HexA(a1-3)GalNAc4S(b1-4)IdoA(a1-3)GalNAc4S
Procedure, shortened: as §1

[28] = target: HexA(a1-3)GalNAc4S(b1-4)IdoA(a1-3)GalNAc4S(b1-4)IdoA(a1-3)GalNAc4S(b1-4)IdoA(a1-3)GalNAc4S(b1-4)IdoA(a1-3)GalNAc4S(b1-4)IdoA(a1-3)GalNAc4S(b1-4)IdoA(a1-3)GalNAc4S
Procedure, shortened: as §1

[29] = target: HexA(a1-3)GalNAc4S(b1-4)IdoA(a1-3)GalNAc4S(b1-4)IdoA(a1-3)GalNAc4S(b1-4)IdoA(a1-3)GalNAc4S(b1-4)IdoA(a1-3)GalNAc4S(b1-4)IdoA(a1-3)GalNAc4S(b1-4)IdoA(a1-3)GalNAc4S(b1-4)IdoA(a1-3)GalNAc4S
Procedure, shortened: as §1

[30] = target: HexA(a1-3)GalNAc6S(b1-4)GlcA(b1-3)GalNAc6S
Procedure, shortened: as §1

[31] = target: HexA(a1-3)GalNAc6S(b1-4)GlcA(b1-3)GalNAc6S(b1-4)GlcA(b1-3)GalNAc6S(b1-4)GlcA(b1-3)GalNAc6S(b1-4)GlcA(b1-3)GalNAc6S(b1-4)GlcA(b1-3)GalNAc6S(b1-4)GlcA(b1-3)GalNAc6S
Procedure, shortened: as §1

[32] = target: HexA(a1-3)GalNAc6S(b1-4)GlcA(b1-3)GalNAc6S(b1-4)GlcA(b1-3)GalNAc6S(b1-4)GlcA(b1-3)GalNAc6S(b1-4)GlcA(b1-3)GalNAc6S(b1-4)GlcA(b1-3)GalNAc6S(b1-4)GlcA(b1-3)GalNAc6S(b1-4)GlcA(b1-3)GalNAc6S
Procedure, shortened: as §1

[33] = target: HexA2S(a1-4)GlcNS6S
Procedure, shortened: as §1

[34] = target: HexA2S(a1-4)GlcNS6S(a1-4)IdoA2S(a1-4)GlcNS6S(a1-4)IdoA2S(a1-4)GlcNS6S(a1-4)IdoA2S(a1-4)GlcNS6S(a1-4)IdoA2S(a1-4)GlcNS6S(a1-4)IdoA2S(a1-4)GlcNS6S(a1-4)IdoA2S(a1-4)GlcNS6S(a1-4)IdoA2S(a1-4)GlcNS6S(a1-4)IdoA2S
Procedure, shortened: as §1

[35] = target: HexA6S(a1-4)GlcNS6S(a1-4)IdoA2S(a1-4)GlcNS6S
Procedure, shortened: as §1

[36] = target: HexA6S(a1-4)GlcNS6S(a1-4)IdoA2S(a1-4)GlcNS6S(a1-4)IdoA2S(a1-4)GlcNS6S(a1-4)IdoA2S(a1-4)GlcNS6S(a1-4)IdoA2S(a1-4)GlcNS6S(a1-4)IdoA2S(a1-4)GlcNS6S(a1-4)IdoA2S(a1-4)GlcNS6S
Procedure, shortened: as §1

[37] = target: Kdn(a2-3)Gal(b1-3)GalNAc(b1-4)[Kdn(a2-3)]Gal(b1-4)Glc
Procedure, shortened: as §1

[38] = target: Kdn(a2-3)Gal(b1-3)GlcNAc(b1-3)Gal(b1-4)Glc
Procedure, shortened: as §1

[39] = target: Kdn(a2-3)Gal(b1-4)Glc
Procedure, shortened: as §1

[40] = target: Kdn(a2-3)Gal(b1-4)[Fuc(a1-3)]GlcNAc(b1-3)Gal
Procedure, shortened: as §1

[41] = target: Kdn(a2-3)Gal(b1-4)[Fuc(a1-3)]GlcNAc(b1-3)Gal(b1-4)Glc
Procedure, shortened: as §1

[42] = target: Kdn(a2-3)Gal(b1-4)[Rha(a1-3)]GlcNAc(b1-3)Gal(b1-4)Glc
Procedure, shortened: as §1

[43] = target: Kdn(a2-3)[GalNAc(b1-4)]Gal(b1-4)Glc
Procedure, shortened: as §1

[44] = target: Kdn(a2-6)Gal
Procedure, shortened: as §1

[45] = target: Man(a1-2)Man
Procedure, shortened: as §1

B1: ZG16p (Homo sapiens), O60844 (protein)
chain: ARSSSYSGEYGGGGGKRFSHSGNQLDGPITALRVRVNTYYIVGLQVRYGKVWSDYVGGRNGDLEEIFLHPGESVIQVSGKYKWYLKKLLFVTDKGRYLSFGKDSGTSFNAVPLHPNTVLRFISGRSGSLIDAIGLHWDVYPSSCSRC
glycan array binding signal (z-score) [1]: -0.255
glycan array binding signal (z-score) [2]: 0.385
glycan array binding signal (z-score) [3]: 0.532
glycan array binding signal (z-score) [4]: 0.672
glycan array binding signal (z-score) [5]: -0.353
glycan array binding signal (z-score) [6]: -0.228
glycan array binding signal (z-score) [7]: -0.365
glycan array binding signal (z-score) [8]: -0.362
glycan array binding signal (z-score) [9]: -0.42
glycan array binding signal (z-score) [10]: -0.42
glycan array binding signal (z-score) [11]: -0.373
glycan array binding signal (z-score) [12]: 0.039
glycan array binding signal (z-score) [13]: -0.328
glycan array binding signal (z-score) [14]: 0.435
glycan array binding signal (z-score) [15]: -0.328
glycan array binding signal (z-score) [16]: 1.05
glycan array binding signal (z-score) [17]: -0.328
glycan array binding signal (z-score) [18]: -0.273
glycan array binding signal (z-score) [19]: -0.23
glycan array binding signal (z-score) [20]: -0.328
glycan array binding signal (z-score) [21]: -0.328
glycan array binding signal (z-score) [22]: -0.328
glycan array binding signal (z-score) [23]: -0.323
glycan array binding signal (z-score) [24]: -0.328
glycan array binding signal (z-score) [25]: -0.328
glycan array binding signal (z-score) [26]: -0.483
glycan array binding signal (z-score) [27]: -0.305
glycan array binding signal (z-score) [28]: -0.328
glycan array binding signal (z-score) [29]: -0.003
glycan array binding signal (z-score) [30]: -0.325
glycan array binding signal (z-score) [31]: -0.328
glycan array binding signal (z-score) [32]: -0.512
glycan array binding signal (z-score) [33]: -0.011
glycan array binding signal (z-score) [34]: 0.297
glycan array binding signal (z-score) [35]: -0.206
glycan array binding signal (z-score) [36]: -0.017
glycan array binding signal (z-score) [37]: -0.328
glycan array binding signal (z-score) [38]: -0.328
glycan array binding signal (z-score) [39]: -0.316
glycan array binding signal (z-score) [40]: -0.328
glycan array binding signal (z-score) [41]: -0.328
glycan array binding signal (z-score) [42]: -0.328
glycan array binding signal (z-score) [43]: -0.328
glycan array binding signal (z-score) [44]: -0.328
glycan array binding signal (z-score) [45]: 0.488
